Experimental data reported in paper PMC4336329 (PLoS ONE, 2015).
About 14,000 (4.5%) of roughly 310,000 compounds showed an effect of 50% or more. Effects have a minus sign here. Some of the results follow.

biological target: human ether-à-go-go-related gene (hERG) potassium channel (human, UniProt Q12809); assay: primary screen, population patch clamp on CHO cells stably expressing hERG
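Also: peak tail current of the secondary pulse compared with the same well before compound.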

Sequence of human ether-à-go-go-related gene (hERG) potassium channel (Q12809 whole entry, looked up): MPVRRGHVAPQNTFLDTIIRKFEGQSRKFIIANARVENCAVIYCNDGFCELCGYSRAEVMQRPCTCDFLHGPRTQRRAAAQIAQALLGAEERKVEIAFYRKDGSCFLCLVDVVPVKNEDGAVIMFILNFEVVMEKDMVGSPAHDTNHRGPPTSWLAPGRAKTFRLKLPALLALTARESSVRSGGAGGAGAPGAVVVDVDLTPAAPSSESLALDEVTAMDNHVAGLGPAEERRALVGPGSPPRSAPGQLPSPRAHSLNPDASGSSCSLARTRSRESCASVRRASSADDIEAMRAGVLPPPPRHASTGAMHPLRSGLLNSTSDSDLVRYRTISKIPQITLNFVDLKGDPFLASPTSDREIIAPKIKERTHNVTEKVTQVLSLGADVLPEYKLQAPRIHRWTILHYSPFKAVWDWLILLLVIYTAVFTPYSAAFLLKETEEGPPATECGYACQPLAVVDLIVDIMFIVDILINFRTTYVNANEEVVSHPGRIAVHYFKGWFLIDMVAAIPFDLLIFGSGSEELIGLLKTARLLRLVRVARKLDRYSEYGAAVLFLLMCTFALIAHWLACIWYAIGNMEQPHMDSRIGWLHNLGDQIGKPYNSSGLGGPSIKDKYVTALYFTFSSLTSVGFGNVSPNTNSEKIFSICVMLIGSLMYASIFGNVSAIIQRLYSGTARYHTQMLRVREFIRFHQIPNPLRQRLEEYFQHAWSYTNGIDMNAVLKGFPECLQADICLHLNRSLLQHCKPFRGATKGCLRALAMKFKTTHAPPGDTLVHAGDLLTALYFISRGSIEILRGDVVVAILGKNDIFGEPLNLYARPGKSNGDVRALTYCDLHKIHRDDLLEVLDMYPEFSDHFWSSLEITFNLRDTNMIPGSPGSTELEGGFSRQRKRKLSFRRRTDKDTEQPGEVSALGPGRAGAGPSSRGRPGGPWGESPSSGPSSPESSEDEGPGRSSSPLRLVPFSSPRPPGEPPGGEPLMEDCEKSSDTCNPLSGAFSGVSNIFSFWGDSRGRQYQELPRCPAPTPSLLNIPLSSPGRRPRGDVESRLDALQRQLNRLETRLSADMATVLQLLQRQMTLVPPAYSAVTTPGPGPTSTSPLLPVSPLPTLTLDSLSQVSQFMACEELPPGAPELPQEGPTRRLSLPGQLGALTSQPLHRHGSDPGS

| SMILES | hERG current change (%, negative = inhibition) at 10uM [%] |
| --- | --- |
| Cc1oc(-c2ccccc2)cc1C(=O)NC(Cc1c[nH]c2ccccc12)C(=O)O (stereo not drawn) | -0.0668 |
| CCCSc1nc(SCC(=O)NCc2ccccc2)c2c3c(sc2n1)COC(C)(CC)C3 (stereo not drawn) | 11.5 |
| COc1ccc(COCC(O)CN(Cc2ccccc2)C(C)C)cc1OC (stereo not drawn) | 0.398 |
| COc1ccc(S(=O)(=O)N2CCC(N3CCN(c4ccccc4OC)CC3)CC2)cc1 | -66.5 |
| Cc1nn(-c2ccccc2)c(C)c1/C=N/n1c(-c2ccc(Cl)cc2)n[nH]c1=S | -7.04 |
| CCn1c(SCC(=O)Nc2nonc2C)nnc1-c1ccoc1C | -1.18 |
| COC(=O)Cc1c(O)ccn(Cc2ccccc2OC)c1=O | 12.5 |
| CS(=O)(=O)N1CCc2cc(C(=O)N3CCN(c4cccc(Cl)c4)CC3)ccc21 | -13.5 |
| CCOc1ccccc1/C=C/C(=O)NCC(=O)N1CCC(N(C)C2CCCCC2C)CC1 (stereo not drawn) | -54.7 |
| Cn1c(=O)[nH]c(=O)c2c1nc(N1CCNCC1)n2CCOc1ccccc1 | -12.9 |
| CN(C)c1ccc(C=C2C(=O)OC(C)(C)OC2=O)cc1 | 4.28 |
| COC(C/C=C\[C@H](O)[C@H](C)OCc1ccccc1)OC | -9.28 |
| CCS(=O)(=O)Nc1cccc(-c2cn3c(n2)SCC3)c1 | 12 |
| COc1cc2c(cc1OC)C(c1ccccc1C(F)(F)F)CC(=O)N2 (stereo not drawn) | -11.1 |
| CCOC(=O)C1=C(COC(=O)CCc2ccccc2)NC(=O)NC1C (stereo not drawn) | -28.1 |
| CCOc1ccccc1N1CC(C(=O)Nc2c(C)n(C)n(-c3ccccc3)c2=O)CC1=O (stereo not drawn) | 20.7 |
| O=S(=O)(Nc1ccc(S(=O)(=O)Nc2ncccn2)cc1)c1ccc(Cl)cc1 | 4.73 |
| CCOC(=O)CC(NS(=O)(=O)c1ccc2[nH]c(=O)sc2c1)c1ccc(C)cc1.Cl (stereo not drawn) | -9.3 |
| Cc1cccn2c(=O)c3cc(C(=O)NCc4ccc(F)cc4)c(=N)n(CC4CCCO4)c3nc12 (stereo not drawn) | -74 |
| CCOC(=O)Cc1nnn(CC(=O)OCC)n1 | 6.19 |
| CCOc1ccc(C2CC(c3ccc(OC)c(OC)c3)n3nc(N)nc3N2)cc1 (stereo not drawn) | -3.39 |
| CC(C)(C)C(=O)N1N=C(c2cccc(NS(C)(=O)=O)c2)CC1c1cccs1 (stereo not drawn) | -24.7 |
| COCCCNc1nc2c(c(=O)n(Cc3ccc(OC)cc3)c(=O)n2C)n1C | 16.3 |
| Cc1c(C)c(C)c(C(=O)c2ccc(NC(=O)c3ccccc3C(=O)O)cc2)c(C)c1C | 15.6 |
